Experimental data as given in the supplement of paper PMC11417369.
The list shows a part of the results.

system: PfSIP2 AP2 domain 1 (GST-tagged); test: gcPBM binding intensity (ln(normalized median fluorescence intensity)); higher = stronger DNA binding
How it was run: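 Probes on an Agilent 4 × 180k array were primer-extended, double-stranded and 36 bp long, taken from intergenic genomic regions, with negative controls added. GST-tagged P. falciparum DNA-binding domains from E. coli, about 25 μg on average, were applied to the array for 1 h in 1× PBS containing 1% milk, 0.2 mg/ml BSA, 0.5% salmon testes DNA and 0.03% Triton X-100. Binding intensity, obtained after Alexa488 anti-GST antibody detection and a 488 nm scan, is the highest Masliner-normalised natural-log median intensity across replicate spots of either probe orientation.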

| Sequence | gcPBM binding intensity (ln) |
| --- | --- |
| ATAAATAAATACTAGGCACACACACCGATATATATA [CACACA_site8649] | 7.18 |
| AAAATAAACCCAGACACACTCATTAAAAAATATCAT [CACACA_site5903] | 6.8 |
| TATTAATCCTTTTGCTTGGAAACATTCAAAAGGAAG [CACACA_negctrl_site1129] | 6.86 |
| ATATATATAAAATATGGTACAGAAAAAGTCTTGTTT [XGTACX_site8868] | 7.45 |
| TAGAATTAAGTTATTGCACACAGGAAAAGTTTCATA [CACACA_site1634] | 6.83 |
| AATCCTTACGAACACACACACACGAATAAATAAAAA [CACACA_site6363] | 7.44 |
| ATAAATAAGAAAAATTGTACAATATTTTTTAGGATA [XGTACX_site3163] | 6.96 |
| TCTTCGAAACTATCACTCTCACAATTCATTTATTTT [TGCATGCA_negctrl_site156] | 6.94 |
| CTGTGTTTTGGTTGTACACACGCTACATTATATATT [CACACA_site5487] | 7.94 |
| TATTTTATCATTTTTTTTATGTCTTTATTTCACTTG [CACACA_negctrl_site1398] | 6.87 |
| ATATACATTAAATGAACACACATAAATAAATTACAT [CACACA_site2852] | 6.95 |
| TTTTAATTTTGTTGTTGTACAAATAACATGTGAGGG [XGTACX_site4401] | 7.92 |
| ATATATATATATATATCATTTATTTAAAAATTTTTT [TGCATGCA_negctrl_site228] | 9.4 |
| AACACATAAAAAAGGTGTACCATAAAATATACATAC [XGTACX_site4478] | 7.01 |
| ATATACACATTAATAACACACAATATGATAACAAAT [CACACA_site7670] | 7.21 |
| GTGCATAAATCATACACACACACATATATAAATATA [CACACA_site7188] | 8.61 |
| GTGTTTTTATGTGAATGTACATATTTACTATCACAC [XGTACX_site2388] | 7.37 |
| AAAGTTTTTATAAAAAAAAAAATAAATACCATATAT [XGTACX_negctrl_site113] | 7 |
| AAAAGTTTAAGTTTTCGAAAATTTACCAAAAAAAAA [CACACA_negctrl_site1644] | 6.84 |

| Sequence | gcPBM binding intensity (ln) |
| --- | --- |
| TTACTTTAACCTTCTCGTACTTATTTACTTTATTCT [XGTACX_site7801] | 7.36 |
| TTTCAAAGGAAATGGTGTACACAATTTTTCCTTTTT [XGTACX_site2340] | 7.09 |
| TTTTATTATTCTTCTCTCTTATATATATATATATAT [CACACA_negctrl_site646] | 9.44 |
| ATAACATAGGCAATCACACATATCATTAAGGTGTCA [CACACA_site5233] | 6.85 |
| TACTTTTATATGAATACACACAGGAATATATATATG [CACACA_site3568] | 7.06 |
| ACTGTGGTATAAAGTTGTACATGTTTTTATATATTT [XGTACX_site5257] | 7.33 |
| GTCTAAAAATAAAAAGTGCATTTGTTTAATATTTTG | 9.52 |
| TTAATTTTTTTTTTTTGTACTCATATGTAATTCATC [XGTACX_site3071] | 7.09 |
| TGATTGTATTAAAATGCACACATATCAAGAGGAATT [CACACA_site7985] | 7.61 |
| TATTATTATTATTATTTTAAAAGAAATAAAAATATG [XGTACX_negctrl_site119] | 7.09 |
| ATTAAAACAAATATGTGTACATAAAAATATATATAT [XGTACX_site8394] | 8.15 |
| TCGATTAAAACACAAAAATATAAATACATTGATAAA [TGCATGCA_negctrl_site523] | 6.64 |
| TTAATAAATATGTTTACACACGAAAATACATTTTTT [CACACA_site8245] | 6.79 |
| TTAAAAGTTATGGATACACACATATAAATATAGATT [CACACA_site7175] | 6.77 |
| ATTTTAATTTTTTAAGTATTATATGAATATTTATTA [TGCATGCA_negctrl_site142] | 6.68 |
| TAATTTTCATAATTTTGTACTTAACGTTTTACCTTG [XGTACX_site8048] | 6.76 |
| ACATATATATATATATATATATATATATATTCTTAA [CACACA_negctrl_site930] | 7.96 |
| CACACGCACGAACACACACACACACGCGCACATATA [CACACA_site6304] | 7.68 |
| TATTTTATTTCAAATCTTAATAATTGTAATTCTTCA [XGTACX_negctrl_site442] | 6.45 |

| Sequence | gcPBM binding intensity (ln) |
| --- | --- |
| TTTTAATTAGAAATCATACACACATATATATATATA [CACACA_site174] | 9.02 |
| ATTTTTAAAATAAATACATGCATATATTTATATGTT [TGCATGCA_site394] | 6.98 |
| TGTGTAATACATAATACACACATGTATATGTCGCAT [CACACA_site4757] | 6.93 |
| AAAAAAAAAGAGGCGTGTACATATATAATTTAAATT [XGTACX_site6827] | 6.84 |
| TTATTAAAGTATAACTGTACATGCGAGTAAAAGAAT [XGTACX_site7388] | 7.83 |
| TGTTCTAATATTTGTTGTACATTTACATTTCTCTCT [XGTACX_site2585] | 7.13 |
| ATAATAGAAACAAACAGTACACATACCTAAAAGGAA [XGTACX_site8647] | 7.08 |
| ATTTACATAAACGTCTGTACTAATATACAATTTTCT [XGTACX_site1700] | 7.02 |
| TATATATAGAAACACACACACATATATATATATATT [CACACA_site4115] | 7.49 |
| CATAAAATTGTATTTTGTACACATTTTGTATACATT [XGTACX_site5705] | 6.75 |
| TGGTTTATTTATTAAGTGCATAAATGCAATATATAT | 8.32 |
| TATTATATATTTAATAGTACATATAAAATAATAAGG [XGTACX_site4823] | 7.04 |
| TATACAGATGGACACACACACATAAATAAATATATA [CACACA_site4863] | 7.16 |
| TTTATTTTTAACAGTGCACACATAACTTAATTATAT [CACACA_site8681] | 10.5 |
| TACTATAACCCACATACACACAAAAAAAAAAAAAAA [CACACA_site4454] | 7.11 |
| TATAAATATGTATATGCATGTGGAATATATAATTAA [TGCATGCA_site226] | 7.17 |
| AAATAAAACAGACACACACACACATACACAAAAAAA [CACACA_site7753] | 7.17 |
| ATATGAGTATAAAAATGTACGGAGCAACTAAATATA [XGTACX_site620] | 7.04 |
